Over roughly 81,000 sequences, “one-hybrid fitness for binding parS DNA” has its median near -0.17; the highest 2% begin near 0.51. The list shows a part of the results.
B1: Caulobacter ParB omega fusion; a variant is named by its letters at X, in order, B8GW30 (parent)
chain: MESVVVGEPGMSEGRRGLGRGLSALLGEVDAAPAQAPGEQLGGSREAPIEILQRNPDQPRRTFREEDLEDLSNSIREKGVLQPILVRPSPDTAGEYQIVAGERAWRAAQRAGLKTVPIMVRELDDLAVLEIGIIENVQRADLNVLEEALSYKVLMEKFERTQENIAQTIGKSXSHVANXMRLLXLPDEVQSYLVSGELTAXHARAIAAAADPVALAKQIIEGGLSVRETEALARKAPNLSAGKSKGGRPPRVKDTDTQALESDLSSVLGLDVSIDHRGSTGTLTITYATLEQLDDLCNRLTRGI

Variants of: B1
Assay: one-hybrid fitness for binding parS DNA (scaled: cognate 1, non-cognate 0); higher = stronger binding
Details: with parS DNA site
Outline: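 In E. coli USO, a HIS3 reporter with its site placed 19 bp from the promoter was used to select Caulobacter ParB variants randomised at four specificity codons. Growth lasted 48 hours at 37°C on histidine-free M9 containing 0.1 mM IPTG and 5 mM 3-AT. Fitness was taken as the log change in variant-to-wild-type read ratio from Illumina sequencing of pre- and post-selection plasmids, rescaled between the non-cognate and cognate sites.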

one-hybrid fitness for binding parS DNA, 0.202:
EHVT

one-hybrid fitness for binding parS DNA, 0.949:
RKEG

one-hybrid fitness for binding parS DNA, 0.752:
RYKC

one-hybrid fitness for binding parS DNA, ≤ 0.2:
QESD
YIPI
PQYM
HCPG
FHLK
YIGG
AQVR
VIIA
WMQS
YMES
SDCG
AHDV
GSHC
QIRN
LDHM
HDMF
TIFF
CQRL
AQLS
APKK
GSAR
ITKH
ILYI
QVYL
QRNL
CTTV
DLTG
PYFL
VTKG
PSDL
QTYH
HSLV
LKLE
PIWR
EVRR
MSPF
QFDW
APYL
SWYC
RTIR
GYQR
YQLI
GEPV
DEDW
SMVD
ETPT
FGGR
KKCR
CWNS
WLPY
FHDT
GLTE
QMAM
VARC
QGKE
SLHY
GCKR
IGLC
YNLR
TIPE
SNVN
KVLV
MQDT
LESR
TVSS
QSNA
RRTE
CSFI
GQEG
RDGV
EHPE
GLNE
FLPG
NAFC
AATR
LEPS
TPTT
WMVS
TYNK
QCQM
QLVH
FQLC
DAPQ
EWNR
IILG
YSYG
ARRY
PYVV
LCIT
KCVS
RDTI
CSLR
SHNR
RYQI

From a collection of fitness landscapes (doi:10.1016/j.celrep.2020.107928)
